# Measured values from PubChem BioAssay (Tox21).
# Inconclusive means that the source gave no clear call. Such entries were picked first, then a sample of the others. For some assays here: Potencies of inconclusive entries are left out as doubtful fits. The source made the active and inactive calls. Unless noted, calls come from the whole dose curve.
# Experiments:
# [1] = qHTS assay to identify small molecule agonists of the farnesoid-X-receptor (FXR) signaling pathway - cell viability counter screen (AID 743218; active = well fitted curve in the direction sought with a large enough effect in the repeat runs; inconclusive = weak or mixed curves; inactive = no such curve, though single readings can be large; an effect the other way counts as inactive or inconclusive; note: nearly all actives have a fitted effect of over 45% in size; note: potency is the fitted concentration of half-maximal effect); details: FXR-bla HEK293T viability, CellTiter-Glo luminescence, 16 h; viability change, negative = cytotoxic: at 62.6 µM (top of the series) unless noted
# Outline: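 Cytotoxicity counter-screen run in parallel, same wells: FXR-UAS-bla HEK 293T cells dosed 16 h at 37 C, viability read by CellTiter-Glo luminescence after 30 min at room temperature.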
# [2] = target: Vitamin D3 receptor (Homo sapiens) (UniProt P11473); assay: qHTS assay to identify small molecule agonists of the vitamin D receptor (VDR) signaling pathway (AID 743222); details: HEK293T VDR-UAS-bla, beta-lactamase FRET ratio, 16 h; activation: at 63.5 µM (top of the series) unless noted; note: potency is the fitted concentration of half-maximal effect
# UniProt P11473, sequence (P11473 whole entry, looked up): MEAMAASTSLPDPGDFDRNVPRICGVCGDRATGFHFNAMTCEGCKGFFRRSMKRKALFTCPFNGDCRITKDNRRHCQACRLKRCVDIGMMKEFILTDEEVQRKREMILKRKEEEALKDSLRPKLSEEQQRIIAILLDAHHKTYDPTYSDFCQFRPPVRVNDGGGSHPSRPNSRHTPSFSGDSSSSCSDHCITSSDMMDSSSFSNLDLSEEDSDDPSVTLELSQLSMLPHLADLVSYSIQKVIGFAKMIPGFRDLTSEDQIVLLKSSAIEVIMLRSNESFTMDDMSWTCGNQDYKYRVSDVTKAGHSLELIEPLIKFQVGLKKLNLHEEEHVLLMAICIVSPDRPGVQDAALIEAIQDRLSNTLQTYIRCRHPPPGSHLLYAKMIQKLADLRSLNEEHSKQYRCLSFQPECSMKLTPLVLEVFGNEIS
# Outline: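 Quantitative HTS agonist-mode screen: compounds in DMSO were pin-transferred onto VDR-bla cells and incubated 16 h at 37C, 5% CO2. Reporter activity was detected with LiveBLAzer B/G FRET substrate after 2 h at room temperature.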
# [3] = qHTS assay to identify small molecule agonists of the endoplasmic reticulum stress response signaling pathway (AID 1159516; active = well fitted activation curve with a large enough effect in the signal ratio in the repeat runs, not every such curve was filed as active; inconclusive = weak or mixed curves, or effect the other way; the % refers to the signal ratio; note: potency is the fitted concentration of half-maximal effect); details: ESRE-bla HeLa, ER stress beta-lactamase reporter, 5 h; activation: at 61 µM (top of the series) unless noted
# Outline: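 Tox21 10K library screened in quantitative HTS format on ESRE-bla HeLa cells, a beta-lactamase reporter under ER stress response element control; 5 hr treatment, FRET read.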
# [4] = target: Retinoic acid receptor RXR-alpha (Homo sapiens) (UniProt P19793); assay: qHTS assay to identify small molecule agonists of the RXR signaling pathway (AID 1159527); details: HEK293T RXRa-UAS-bla, beta-lactamase ratio, 16 h; activation: at 76.8 µM (top of the series) unless noted; note: nearly all actives have a fitted effect of over 35% in size; note: potency is the fitted concentration of half-maximal effect
# UniProt P19793, sequence (P19793 whole entry, looked up): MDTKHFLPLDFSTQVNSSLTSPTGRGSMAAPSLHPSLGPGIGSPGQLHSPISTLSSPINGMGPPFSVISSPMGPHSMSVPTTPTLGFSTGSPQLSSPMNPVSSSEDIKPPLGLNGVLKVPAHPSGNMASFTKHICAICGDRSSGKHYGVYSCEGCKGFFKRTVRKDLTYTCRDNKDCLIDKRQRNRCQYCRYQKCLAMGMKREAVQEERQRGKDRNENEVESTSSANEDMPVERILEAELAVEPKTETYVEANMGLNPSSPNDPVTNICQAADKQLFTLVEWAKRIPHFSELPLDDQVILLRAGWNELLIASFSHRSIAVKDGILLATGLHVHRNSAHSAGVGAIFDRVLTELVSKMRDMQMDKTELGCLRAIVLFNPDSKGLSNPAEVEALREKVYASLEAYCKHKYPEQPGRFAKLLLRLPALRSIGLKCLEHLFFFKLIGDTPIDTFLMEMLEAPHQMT
# Outline: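 Cells plated at 2,000/well, rested 5 hr at 37 C, pin-dosed with DMSO compound solutions, incubated 16 hr, then loaded with B/G FRET substrate for 2 hr at RT before dual-emission fluorescence reading.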
# [5] = target: Peroxisome proliferator-activated receptor delta (Homo sapiens) (UniProt Q03181); assay: qHTS assay to identify small molecule antagonists of the peroxisome proliferator-activated receptor delta (PPARd) signaling pathway (AID 743215; active = well fitted inhibition curve with a large enough effect in the signal ratio in the repeat runs, not every such curve was filed as active; inconclusive = weak or mixed curves, or effect the other way; inactive = no such curve, though single readings can be large or run the other way; the % refers to the signal ratio;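 note: cells stimulated with agonist L165041 at 300 nM final during compound exposure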); details: HEK293H PPARd-UAS-bla, beta-lactamase FRET ratio, antagonist, 17 h; ratio activity, negative = inhibition: at 62 µM (top of the series) unless noted
# UniProt Q03181, sequence (Q03181 whole entry, looked up): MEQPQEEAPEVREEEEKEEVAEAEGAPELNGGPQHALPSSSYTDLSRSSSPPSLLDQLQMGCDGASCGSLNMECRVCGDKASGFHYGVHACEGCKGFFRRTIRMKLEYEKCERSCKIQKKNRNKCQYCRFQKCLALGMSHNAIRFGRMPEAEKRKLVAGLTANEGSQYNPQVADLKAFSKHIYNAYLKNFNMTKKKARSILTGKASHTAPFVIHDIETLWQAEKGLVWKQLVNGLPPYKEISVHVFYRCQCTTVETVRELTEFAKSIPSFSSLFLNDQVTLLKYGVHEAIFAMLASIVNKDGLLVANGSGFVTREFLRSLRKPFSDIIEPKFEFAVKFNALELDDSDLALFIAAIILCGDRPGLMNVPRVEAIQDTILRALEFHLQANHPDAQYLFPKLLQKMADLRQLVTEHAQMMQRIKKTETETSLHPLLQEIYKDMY
# Outline: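 Inhibition of L165041-driven (300 nM final) PPARd signaling is scored in HEK293H UAS-bla cells. Exposure lasts 17 h at 37 C; beta-lactamase activity is then read by FRET substrate fluorescence after 2 h at room temperature.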
# [6] = target: Bile acid receptor (Homo sapiens) (UniProt Q96RI1); assay: qHTS assay to identify small molecule antagonists of the farnesoid-X-receptor (FXR) signaling pathway (AID 743217; active = well fitted inhibition curve with a large enough effect in the signal ratio in the repeat runs, not every such curve was filed as active; inconclusive = weak or mixed curves, or effect the other way; inactive = no such curve, though single readings can be large or run the other way; the % refers to the signal ratio); details: HEK293T FXR-UAS-bla, beta-lactamase ratio, CDCA-stimulated, 16 h; activity change, negative = inhibition: at 62.6 µM (top of the series) unless noted
# UniProt Q96RI1, sequence (Q96RI1 whole entry, looked up): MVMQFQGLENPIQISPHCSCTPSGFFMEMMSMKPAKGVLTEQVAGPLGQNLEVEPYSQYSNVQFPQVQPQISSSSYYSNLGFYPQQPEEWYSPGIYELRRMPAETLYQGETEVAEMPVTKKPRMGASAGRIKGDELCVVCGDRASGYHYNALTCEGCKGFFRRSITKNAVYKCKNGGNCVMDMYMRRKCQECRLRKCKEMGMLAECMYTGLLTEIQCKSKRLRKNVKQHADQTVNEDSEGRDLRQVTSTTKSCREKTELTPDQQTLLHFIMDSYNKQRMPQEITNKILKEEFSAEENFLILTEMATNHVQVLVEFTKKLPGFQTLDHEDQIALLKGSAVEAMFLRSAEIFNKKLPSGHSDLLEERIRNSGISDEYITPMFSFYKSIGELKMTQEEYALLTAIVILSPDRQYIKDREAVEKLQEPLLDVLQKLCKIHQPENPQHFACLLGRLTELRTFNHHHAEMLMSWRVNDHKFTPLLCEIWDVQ
# Outline: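 Antagonist mode against 50 uM (final) chenodeoxycholic acid stimulation in FXR-bla HEK 293T cells, 16 h at 37 °C. Inhibition detected as reduced beta-lactamase activity via LiveBLAzer B/G FRET fluorescence after 2 h at room temperature.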
# [7] = target: Vitamin D3 receptor (Homo sapiens) (UniProt P11473); assay: qHTS assay to identify small molecule antagonists of the vitamin D receptor (VDR) signaling pathway (AID 743223; active = well fitted inhibition curve with a large enough effect in the signal ratio in the repeat runs, not every such curve was filed as active; inconclusive = weak or mixed curves, or effect the other way; inactive = no such curve, though single readings can be large or run the other way; the % refers to the signal ratio; note: potency is the fitted concentration of half-maximal effect); details: VDR-UAS-bla HEK293T, beta-lactamase FRET ratio, 16 h; activity change, negative = inhibition: at 61 µM (top of the series) unless noted
# Outline: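 Cells carrying a VDR-driven beta-lactamase reporter (VDR-bla) were co-treated with compound and 3 nM final 1alpha,25-dihydroxyvitamin D3 for 16 h at 37C; reporter activity was measured as FRET substrate fluorescence after 2 h at room temperature.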
# [8] = qHTS assay to identify small molecule antagonists of the farnesoid-X-receptor (FXR) signaling pathway - cell viability counter screen (AID 743221; active = well fitted cell-killing curve with a large enough effect in the repeat runs, not every such curve was filed as active; inconclusive = weak or mixed curves, or effect the other way; inactive = no such curve, though single readings can be large or run the other way; note: nearly all actives have a fitted effect of over 50% in size); details: FXR-bla HEK293T viability, CellTiter-Glo luminescence, 16 h; activity change, negative = cytotoxicity: at 62.6 µM (top of the series)
# Outline: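 Multiplexed counter screen: viability of FXR-bla HEK 293T cells under agonist stimulation by chenodeoxycholic acid (50 uM, final) and test compound for 16 h at 37 C, measured by CellTiter-Glo luminescence in the reporter wells.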
# [9] = qHTS assay to identify small molecule agonists of the vitamin D receptor (VDR) signaling pathway - cell viability counter screen (AID 743224; active = well fitted curve in the direction sought with a large enough effect in the repeat runs; inconclusive = weak or mixed curves; inactive = no such curve, though single readings can be large; an effect the other way counts as inactive or inconclusive; note: nearly all actives have a fitted effect of over 50% in size; note: potency is the fitted concentration of half-maximal effect); details: VDR-bla HEK293T viability, CellTiter-Glo luminescence, 16 h; activity change, negative = cytotoxicity: at 62.6 µM (top of the series)
# Outline: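 Viability is measured in the same wells as the VDR-bla reporter assay: after 16 h compound treatment and 2 h substrate loading, CellTiter-Glo is added and luminescence read 30 min later.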
# [10] = qHTS assay to identify small molecule antagonists of the vitamin D receptor (VDR) signaling pathway - cell viability counter screen (AID 743225; active = well fitted curve in the direction sought with a large enough effect in the repeat runs; inconclusive = weak or mixed curves; inactive = no such curve, though single readings can be large; an effect the other way counts as inactive or inconclusive; note: nearly all actives have a fitted effect of over 50% in size; note: potency is the fitted concentration of half-maximal effect); details: VDR-bla HEK293T viability, CellTiter-Glo luminescence, 16 h; viability change, negative = cytotoxic: at 61 µM (top of the series) unless noted
# Outline: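 HEK293T VDR-bla; cpd + 1a,25-(OH)2D3 3 nM final, 16 h 37C/5% CO2; B/G FRET substrate 2 h RT; then CellTiter-Glo 30 min RT, luminescence.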
# [11] = target: Bile acid receptor (Homo sapiens) (UniProt Q96RI1); assay: qHTS assay to identify small molecule agonists of the farnesoid-X-receptor (FXR) signaling pathway (AID 743220; active = well fitted activation curve with a large enough effect in the signal ratio in the repeat runs, not every such curve was filed as active; inconclusive = weak or mixed curves, or effect the other way; the % refers to the signal ratio; note: potency is the fitted concentration of half-maximal effect); details: HEK293T FXR-UAS-bla, beta-lactamase FRET ratio, 16 h; activation: at 62.6 µM (top of the series) unless noted
# Outline: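 Beta-lactamase reporter under UAS control in GeneBLAzer FXR HEK 293T cells (5000/well) measured with LiveBLAzer FRET substrate after 2 h at room temperature. Compound exposure lasted 16 h at 37C.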
# [12] = qHTS assay to identify small molecule antagonists of the peroxisome proliferator-activated receptor delta (PPARd) signaling pathway - cell viability counter screen (AID 743213; active = well fitted curve in the direction sought with a large enough effect in the repeat runs; inconclusive = weak or mixed curves; inactive = no such curve, though single readings can be large; an effect the other way counts as inactive or inconclusive; note: nearly all actives have a fitted effect of over 50% in size); details: PPARd-bla HEK293H viability, CellTiter-Glo luminescence, 17 h; viability change, negative = cytotoxic: at 62 µM (top of the series) unless noted
# Outline: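 Cytotoxicity counter screen: CellTiter-Glo luminescence read 30 min after addition, in the same wells as the reporter assay. There, PPARd UAS-bla HEK293H cells (3000/well) were treated 17 h at 37 C with compound and 300 nM L165041.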
# [13] = target: Peroxisome proliferator-activated receptor delta (Homo sapiens) (UniProt Q03181); assay: qHTS assay to identify small molecule agonists of the peroxisome proliferator-activated receptor delta (PPARd) signaling pathway (AID 743212); details: HEK293H PPARd-UAS-bla, beta-lactamase FRET ratio, 17 h; activation: at 62.6 µM (top of the series) unless noted
# Outline: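 HEK293H PPARd-bla cells; 5 h preincubation 37 C/5% CO2; compound (DMSO) 37 C; LiveBLAzer B/G FRET substrate 2 h RT; fluorescence intensity.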
# % is set by controls: 0 for no effect and ±100 for the full control effect; tags give direction and shape of the fitted curve or compound fluorescence and quenching.
smiles,measurement,setting,value
CCCCOC(=O)CC,Potency,[1],inactive
same,Potency,[2],inactive
same,Potency,[3],"inconclusive [rising, full curve, poor fit]"
same,activation,[4],inconclusive: 0.146%
CCCCOCCO,"ratio activity, negative = inhibition",[5],inconclusive: 1.17%
same,"activity change, negative = inhibition",[6],inconclusive: 2.67%
same,Potency,[1],inactive
same,Potency,[3],inconclusive [activator]
same,Potency,[4],inactive
CCOCCOC(=O)/C=C/c1ccc(OC)cc1,Potency,[1],inactive
same,Potency,[3],inactive
same,Potency,[4],inactive
CCCCCCCCN1CCCC1=O,Potency,[7],"inconclusive [activator, partial curve, poor fit]"
same,Potency,[3],inactive
same,Potency,[4],inactive
CCOCCC(=O)OCC,Potency,[7],inactive
same,Potency,[3],"inconclusive [rising, partial curve, poor fit]"
same,Potency,[4],inactive
COc1ccc2[nH]c(S(=O)Cc3ncc(C)c(OC)c3C)nc2n1 (configuration not stated),Potency,[8],inactive
same,Potency,[9],inactive
same,Potency,[10],inactive
same,Potency,[3],inactive
same,Potency,[4],inconclusive
CCCCCc1ccco1,"activity change, negative = inhibition",[6],inconclusive: -6.64%
same,"activity change, negative = inhibition",[7],inconclusive: -7.31%
same,Potency,[9],"inconclusive [cytotoxic, full curve]"
same,Potency,[3],inconclusive
same,Potency,[4],"inconclusive [inhibitor, partial curve]"
Cc1c(N)c(=O)n(-c2ccccc2)n1C,"activity change, negative = inhibition",[7],inconclusive: -1.9%
same,Potency,[3],inactive
same,Potency,[4],inactive
CC(C)N1C(=O)c2ccccc2C1=O,Potency,[5],inactive
same,Potency,[1],"inconclusive [rising, partial curve, poor fit]"
same,Potency,[2],inactive
same,Potency,[3],inactive
same,Potency,[4],inactive
CN(C)C(C)(C)CO,Potency,[9],inactive
same,Potency,[3],inactive
same,Potency,[4],inactive
CNC(=O)C(c1ccccc1)c1ccccc1,"ratio activity, negative = inhibition",[5],inconclusive: -26.1%
same,"activity change, negative = inhibition",[6],inconclusive: -18.8%
same,Potency,[11],inactive
same,Potency,[7],inactive
same,Potency,[3],inactive
same,Potency,[4],inactive
O=C1c2ccccc2C(=O)c2c(O)ccc(O)c21,"activity change, negative = inhibition",[6],inconclusive: -30.3%
same,Potency,[11],"inconclusive [rising, partial curve]"
same,Potency,[2],"inconclusive [rising, partial curve]"
same,Potency,[9],"inconclusive [cytotoxic, partial curve, poor fit]"
same,Potency,[10],"inconclusive [cytotoxic, partial curve]"
same,activation,[3],inconclusive: -3.59%
same,Potency,[4],inactive
CC(=O)N(CC(O)CO)c1c(I)c(C(=O)NCC(O)CO)c(I)c(C(=O)NCC(O)CO)c1I (configuration not stated),Potency,[12],inactive
same,Potency,[2],inactive
same,"activity change, negative = inhibition",[7],inconclusive: 0.848%
same,Potency,[3],inactive
CCCCN(CCCC)CCCCCCN(CCCC)CCCC,Potency,[13],inactive
same,Potency,[5],inactive
same,"activity change, negative = inhibition",[7],inconclusive: -2.93%
same,Potency,[9],"inconclusive [cytotoxic, partial curve, poor fit]"
same,Potency,[10],inactive
same,Potency,[3],inactive
